Source: PubChem BioAssay AID894 (National Center for Advancing Translational Sciences (NCATS), 2007)
“And” between values parts separate entries of the source, which are not always exact repeats. Equal entries are not always repeated. The whole screen tested about 150,000 compounds, of which about 6,500 (4.3%) were called active. Inconclusive results, whose numbers are uncertain, are shown with a selection of clear calls. Calls follow the shape of the dose curve; as a rule, active = well fitted inhibition curve with a large enough effect (not every such curve was filed as active); inconclusive = small, poorly fitted or top-dose-only effect, or another doubt; inactive = no such curve, though single readings can be large or run the other way. No potency is given beside an inconclusive call; the fits are too rough.

The molecules below were run against 15-hydroxyprostaglandin dehydrogenase [NAD(+)] (Homo sapiens) (UniProt P15428) (assay: qHTS Assay for Inhibitors of HPGD (15-Hydroxyprostaglandin Dehydrogenase)). Details: purified HPGD, NADH fluorescence kinetic, PGE2 substrate; activity change, negative = inhibition: active compounds read low.
Outline: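 NADH formation kinetics: reaction with 30 uM PGE2 and 1 mM NAD+ (final), 20 nM enzyme, Tris-HCl pH 8 with Tween 20, after 15 min compound preincubation at room temperature. Fluorescence change, last versus first of five reads.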
% is scaled to controls: 0 for no effect and ±100 for the full control effect; potency is read from the fitted curve at half-maximal effect; tags tell the direction and shape of the fitted curve.

Chain of UniProt P15428 (P15428 whole entry, looked up): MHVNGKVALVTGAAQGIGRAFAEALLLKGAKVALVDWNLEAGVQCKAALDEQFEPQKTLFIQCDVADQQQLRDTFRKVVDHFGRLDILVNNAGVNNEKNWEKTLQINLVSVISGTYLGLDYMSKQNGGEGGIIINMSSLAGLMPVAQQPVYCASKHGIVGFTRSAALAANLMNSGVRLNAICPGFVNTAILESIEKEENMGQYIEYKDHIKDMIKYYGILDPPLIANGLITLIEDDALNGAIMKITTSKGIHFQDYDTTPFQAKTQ

Compound	Potency	activity change, negative = inhibition
COc1ccc(-n2cnc3cc(NCc4cccs4)ccc32)cc1	inconclusive [inhibitor, partial curve]	–
CCOc1ccc(C(C)=O)cc1CSc1nnc(-c2ccoc2C)n1N	active: 14.1 µM	–
C=CCOc1c(Br)cc(/C=N/n2c(CC)n[nH]c2=S)cc1Br	active: 3.16 µM	–
Cn1cnnc1SC1CCCCC1NS(=O)(=O)c1ccccc1 (centres undefined)	–	inactive: -3.32%
Cc1nc2ccccc2c(=O)n1/N=C/c1ccccn1	–	inactive: -8.07%
CCn1cc(C(=O)Nc2ccc(F)c(F)c2)cn1	–	inactive: -6.47%
O=C(O)c1ccccc1S	–	inactive: -7.26%
COc1ccccc1-c1cc(-c2ccccc2)nc(SC(C(N)=O)c2ccccc2)c1C#N (centres undefined)	inconclusive [inhibitor, partial curve]	–
Cc1ccc(C2C3=C(CC(C)(C)CC3=O)Nc3[nH]c(=S)[nH]c(=O)c32)cc1 (centres undefined)	active: 17.8 µM	–
CCCSc1nsc(N)n1	inconclusive [inhibitor, partial curve]	–
CCNc1nc(Oc2ccc(Cl)cc2Cl)cc(C(F)(F)F)n1	inconclusive [inhibitor, partial curve]	–
O=S(=O)(c1ccccc1)N1CCC2(CCCN(Cc3ccncc3)C2)CC1	–	inactive: -7.41%
Cc1ccc(-n2c(Cc3ccccc3)n[nH]c2=S)cc1	inconclusive [inhibitor, single point]	–
S=C(NCc1ccco1)N1CCN(Cc2ccc(Cl)cc2Cl)CC1	inconclusive [inhibitor, single point]	–
O=C1Nc2ccccc2Oc2cc([N+](=O)[O-])cc(Oc3ccccc3)c21	–	inactive: -11.3%
CC1(C)Oc2ccc3ccc(=O)oc3c2C(/C=N/O)C1=O (centres undefined)	inconclusive [inhibitor, partial curve]	–
N#Cc1c(C(F)(F)F)cc(-c2ccccc2)nc1SCC(=O)N1CCOCC1	inconclusive [inhibitor, partial curve]	–
COc1ccccc1[C@@H]1C(c2cccc(C)c2)=NN(c2ccc(Br)cc2)[C@H]1C(=O)N1CCOC1=O	inconclusive [inhibitor, partial curve]	–
CCOc1ccc(NC(=O)c2cc3cc4ccc(OC)cc4nc3o2)cc1	inconclusive [inhibitor, partial curve]	–
S=c1[nH]ncn1/N=C/c1ccc(Br)cc1	active: 22.4 µM	–
O=C1CC(NC23CC4CC(CC(C4)C2)C3)C(=O)N1c1ccc2c(c1)OCO2 (centres undefined)	–	inactive: -4.53%
CC(C)C[C@@H](CC(=O)N[C@@H](CCCN)CC(=O)N[C@@H]1CCNC[C@H]1C(=O)N[C@H](CC(=O)N[C@@H](CCC(=O)O)CC(=O)O)Cc1c[nH]c2ccccc12)NC(=O)[C@@H]1CNCC[C@H]1N	–	inactive: -5.15%
CN(C)c1cccc(C(=O)OCC(=O)Nc2ccccc2Sc2ccccc2)c1	inconclusive [inhibitor, partial curve]	–
O=C(Cn1nc(-c2ccccc2)c2ccccc2c1=O)Nc1ccccn1	inconclusive [inhibitor, single point]	–
COc1ccccc1CNC(=O)c1ccccc1OC	inconclusive [inhibitor, single point]	–

Compound	Potency	activity change, negative = inhibition
Cc1csc2ncc(C(=O)NCCc3ccccc3)c(=O)n12	inconclusive [inhibitor, partial curve]	–
O=C(CSc1nc(O)cc(=O)[nH]1)N1CCCc2ccccc21	active: 17.8 µM	–
CC1CCN(S(=O)(=O)c2ccc3[nH]cc(C(=O)NCCN4CCOCC4)c(=O)c3c2)CC1	inconclusive [inhibitor, partial curve]	–
CC(=C(CCOP(=O)(O)O)SC(=O)c1ccccc1)N(C=O)Cc1cnc(C)nc1N	–	inactive: -4.4% and inactive: -9.58%
CCOC(=O)c1[nH]c2ccc(OC)cc2c1NC(=O)CN1CCN(c2ccccn2)CC1	inconclusive [inhibitor, partial curve]	–
CSc1nnc(-c2ccco2)c(-c2ccco2)n1	active: 8.91 µM	–
COc1ccc(C(=O)Nc2nncs2)cc1S(=O)(=O)N1CC(c2ccccc2)CC1=O (centres undefined)	–	inactive: -8.92%
CC(=O)CC(=O)Nc1ccc(Nc2ccccc2)cc1	–	inactive: -9.24%
CCOC(=O)c1sc(=S)n(-c2ccccc2Cl)c1SC	active: 17.8 µM	–
Cc1c(C(=O)N2CCCCC2)sc(NC(=O)C2CC2)c1C#N	active: 14.1 µM	–
CCCCOc1ccc(C(=O)Nn2c(-c3cccs3)nc3ccccc3c2=O)cc1	inconclusive [inhibitor, partial curve]	–
c1csc(-c2csc(-c3cccs3)n2)c1	inconclusive [inhibitor, partial curve]	–
CCCCC[C@H](O)/C=C/[C@@H]1[C@H]2C/C(=C/CCCC(=O)O)C[C@H]2C[C@H]1O	–	inactive: -9.97%
COc1ccc(CCC(=O)Nc2ccc(C)c([N+](=O)[O-])c2)cc1	active: 12.6 µM	–
O=C(CCCOc1ccccc1)NCc1ccco1	active: 12.6 µM	–
Cc1ccc(S(=O)(=O)/C(C#N)=C/c2c(Oc3ccc(Cl)cc3)nc3c(C)cccn3c2=O)cc1	–	inactive: -9.63%
O=C(N/N=C/c1cn(-c2ccccc2)nc1-c1cc2ccccc2o1)c1cccnc1	inconclusive [inhibitor, partial curve]	–
CC1CCCN(C(=O)CN2CCN(C(=O)c3ccco3)CC2)C1 (centres undefined)	–	inactive: -9.1%
O=C(CSc1nnc(-c2ccco2)o1)N1c2ccccc2CCc2ccccc21	–	inactive: -7.68%
COc1ccccc1N=C1SCC(=O)N1c1ccccc1OC	inconclusive [inhibitor, single point]	–
CCOC(=O)C1CCCCN1C(=O)CCc1c(C)nc2cc(-c3ccccc3)nn2c1C (centres undefined)	inconclusive [inhibitor, partial curve]	–
CCOC(=O)N1CCN(C(=S)Nc2ccc3nc(N4CCN(CC)CC4)cc(C)c3c2)CC1	inconclusive [inhibitor, single point]	–
CCN(C(=O)c1ccc2c(Cl)c3c(nc2c1)CCC3)c1ccc(C)c(C)c1	inconclusive [inhibitor, single point]	–
O=C(COc1ccc2c(c1)C(=O)CC1(CCCCC1)O2)NCc1ccccn1	inconclusive [inhibitor, partial curve]	–
O=C(NCc1ccco1)C1CCN(c2ccc(N3CCOCC3)nn2)CC1	inconclusive [inhibitor, partial curve]	–

Compound	Potency	activity change, negative = inhibition
O=C1CC(c2ccccc2)c2cc(O)ccc2O1 (centres undefined)	inconclusive [inhibitor, single point]	–
Cc1cccc(-n2c(Cn3nc(C)c([N+](=O)[O-])c3C)n[nH]c2=S)c1	–	inactive: -25.1%
CC(=O)/C(=N\Nc1ccccc1Cl)Sc1cccc2cccnc12	inconclusive [inhibitor, partial curve]	–
CC(C)n1c(-c2ccc(C(C)(C)C)cc2)n[nH]c1=S	–	inactive: -22.6%
COCCn1c(-c2ccccc2)nc2ccccc21	inconclusive [inhibitor, partial curve]	–
O=C(/C=C/Nc1cccc(C(F)(F)F)c1)c1ccc(Oc2ncccn2)cc1	inconclusive [inhibitor, single point]	–
COc1ccc(-c2nc3ccccn3c2NCc2ccc3c(c2)OCO3)cc1	inconclusive [inhibitor, partial curve]	–
CCNc1ncc2ncc(=O)n(CCc3ccccc3)c2n1	inconclusive [inhibitor, partial curve]	–
CC(C)(C)c1ccc(S(=O)(=O)/C=C/C#N)cc1	active: 10 µM	–
O=C(CC12CCC(CC1)C2)NCc1ccc2c(c1)OCO2	active: 15.8 µM	–
O=C(c1ccco1)N1CCC2(CC1)CCN(c1cccc(-c3ccccc3)c1)CC2	–	inactive: -19.4%
CCNc1nc(NCC)n2c(SCc3nc4ccccc4c(=O)[nH]3)nnc2n1	–	inactive: -9.16%
C/C(=C\c1ccccc1)C1NC(=O)c2c(sc3c2CCCC3)N1 (centres undefined)	–	inactive: -3.55%
CCc1nc(SCC(=O)c2cc(C)ccc2C)n[nH]1	active: 39.8 µM	–
COc1ccccc1/C=C1\S/C(=N/NC(=O)c2cccc(Br)c2)NC1=O	active: 11.2 µM	–
COc1ccc2nc3oc(C(=O)N4CCC(C(N)=O)CC4)cc3cc2c1	inconclusive [inhibitor, partial curve]	–
Nc1cc(N)nc(SCC(=O)Nc2ccc(Br)cc2Cl)n1	–	inactive: -12.3%
O=C(CC(NC(=O)C(F)(F)F)c1ccccc1)Nc1nnc(CCc2ccccc2)s1 (centres undefined)	inconclusive [inhibitor, partial curve]	–
CC(C)(C)c1ccc(C(=O)CSc2ncn[nH]2)cc1	active: 25.1 µM	–
Cc1nn2c(Nc3ccc(F)cc3)c3c(nc2c1-c1ccccc1)CCC3	inconclusive [inhibitor, partial curve]	–
O=C(/C=C/c1ccc(Cl)cc1Cl)NCCSCc1ccccc1	active: 14.1 µM	–
CCOc1ccc(-c2nnc3ccc(SCC(=O)Nc4nc5ccc(C)cc5s4)nn23)cc1	inconclusive [inhibitor, partial curve]	–
CC(C)c1nnc(SCC(=O)NCCC2=CCCCC2)n1N	active: 15.8 µM	–
CCc1nnc(NC(=O)c2sc3nc4cc(C)ccc4cc3c2N)s1	–	inactive: -9.99%
